Assay results taken from the supplement of paper PMC10126150.
Sequences with one replicate were seen in a single cluster, so their values are uncertain.

Test system: ATP
Test: switch fluorescence ratio, 500 uM ATP over buffer (Cy3 cluster intensity, sum of 5 cycles each) (fold (ratio)); higher = stronger signal-on switching upon ATP binding; sequences stand for … in TCGTCGGCAGCGTCAGATGTGTATAAGAGACAGTTTTTTTTTTTTTTTTTTTTTTTTT…TC
Settings: aptamer strand: ATP DNA aptamer (quencher-CACCTGGGGGAGTATTGCGGAGGAAGG + anchor), 100 nM annealed; ATP concentration: 500 uM; one replicate
How it was run: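 Between each of five buffer/ATP cycles, the flow-cell was stripped with NaOH and re-annealed. Each cycle imaged Cy3-labelled switching-strand clusters, annealed to 100 nM quencher-labelled ATP aptamer on a modified Illumina MiSeq flow-cell, first in selection buffer and then after 15 min with 500 uM ATP at 22 °C. The fluorescence ratio is summed target-cycle over summed buffer-cycle Cy3 intensity per cluster, averaged per switch-domain sequence, with clusters outside 100-1000 RFU excluded.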
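Further: ATP exposure 15 min at 22 °C before imaging.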

Sequence	switch fluorescence ratio
AAAGATTGCA	0.972
TGAGGAGGT	1.03
GTTCACCGGC	1.04
GACTACGGAA	4.86
TAATCTTCTG	1.01
CCGAGGGTGG	1.03
ACGATAATGG	1.03
CATTTGCACT	1.12
GTGTCCGCTA	2.17
CTAAGCGTAG	1.01
ATTGCTTTCT	1.02
ACAGGGTTTT	1.01
TAACGTCGTG	0.976
TGGTAAGGTT	0.964
CCCCGTGTCG	0.943
AGTTCCGGAG	2.93
GTACTCTGCT	1.05
TTCTATAGCG	1.02
TTGCAGCCGT	1.03
ATTTCATGGC	1.08
TTTGACTCCC	1.03
TTTTTAGACC	0.991
GCCTGTCAGC	0.982

Sequence	switch fluorescence ratio
CTTTGAAGTG	0.982
GGAATTTGAT	0.971
GATAGCACAC	1.48
CAGGCGTCGC	1.06
GGGAAGAATC	0.976
AGCGTTTGTC	1.08
GTTCCCCTGG	1.2
AATCGCTCTC	1.03
ACTATAAAAT	1.05
GAACTTCTTA	0.999
CAGGAAGGCG	0.973
TCAAACATA	1.01
GTAGCACCGG	0.987
GAGATAGCGA	0.973
CAGAGATGAC	1.06
CTAATTTATA	1
TCTTACCCTG	0.971
TGAGTGGGTA	0.981
CGTGTCCGTC	1.03
CGAGAGTATG	1.03
TATTATGTGT	1.07
TTTATGCCTC	0.973
GTCGAGTTAG	1.01

Sequence	switch fluorescence ratio
TCAAACTTGC	0.98
AGGAGGACTT	1.07
CGTAGTAGG	0.993
GCTTCTGGCT	0.957
GGGTAAGAGC	1.06
CAAAAGTCAA	1.03
CAGTTTGTCC	0.985
GCCAGGTGGT	3.14
GAACGCCTCA	1.09
TGGCACCTGA	1.03
GCTATTATGC	0.971
TCGCGTCATC	1.02
AGTTTTTGCA	0.937
TTTTAGCGCA	1.04
GTGGCGGAGT	0.974
TACCATGTCA	1.06
AACCCGGAAC	1.2
TATGTCAGCG	1.04
CTTTGTTCGT	0.969
CCCGAGTCTG	1.09
AATTCGCAGA	1.07
ATGTCATGG	1.03
GGACAGCACC	1.17

Sequence	switch fluorescence ratio
CCCTGGGACA	0.974
TCGTTATCGT	0.999
TGACATAAGA	1
TATTCACTGT	1.03
CGCCCTGGGC	1.03
ACATAAGCCT	1.27
GGCACTTTAG	0.965
CGTGA	1.66
AATTTAGTAC	0.98
AAGTTGAAT	0.995
GCTCCATTGG	1.01
AGTTCTCTTG	0.968
TAAGCGTCAC	1.08
TGGACATTAG	0.998
ACAAAGTTGA	0.986
GACGGATTAC	3.36
GCTCACCGGA	1.03
GACCTGCCTG	1.15
TGTCGATATG	0.988
AGACATGTAG	0.973
AAGAGCCTG	1
TTGGCAGGTT	0.953
ACTGTCTGTA	1.02

Sequence	switch fluorescence ratio
TAGTCAGGGA	0.994
TTGGGCTCTT	1.01
GGAATGCTCA	1.45
ACGCTAGTGG	1.03
GGGAATTCAG	0.988
TATTGTTTAC	1.12
CTAGACGCTG	1.02
TAGTAGCGCT	0.98
CGTTGTACT	1.05
CACTGGGTCG	0.981
CAGACTAAT	0.964
TTATTGGGAA	2.04
AGGAAAACGG	1.04
GGCCTAATGC	1
GCTATCTATT	0.964
AACCTTATGA	1.18
ACTACACGAA	1.26
CATGCCTCTG	0.99
ACATAGGTCC	1.04
ACGTGCCGAA	0.977
GACGTGTAGG	1.05
GCTCCAGCTC	1.6
AAGTTTTAGT	1.01

Sequence	switch fluorescence ratio
ACTTGGGTTG	0.961
CGGCAGCTTC	1.33
ACGTGACAAG	1.17
GAACGAGAAC	1.06
GGGGATAGCA	0.987
TAACAGCTC	0.963
TGCTGCGGAG	1
TCGAGCTCCT	1.04
GAATGAAAGA	1.06
CACGTCACGA	1.56
ATGTAAACCC	0.999
CGTGTGTTAA	1.06
AGTGCGTCAC	1.02
GATTATAGA	1.02
CAATAGGAGG	0.943
TTTAGCCGTT	1.03
ATGGTATATG	0.984
CTACTCTAGC	1.15
TTAAACAAGT	0.956
CGTTCTGTTG	1
GTGCCGCATA	2.25
CTAGAACGTT	1.01
TCGGTATGGA	1.02

Sequence	switch fluorescence ratio
CGCAAAGCAT	1.05
CATTTGGGG	0.977
CAAGTCAGTC	0.98
TAAGACAATT	1.06
GATGCAGAAT	0.983
GAAAAATTGC	0.959
CCAGACATAG	1.01
CTCGTAGGGC	0.941
AAAAAAGGCC	1.07
TACATTTAAG	1.03
TTAACAGCAC	1.36
CGGTCACATT	1.01
GATCCAAGTA	0.994
AAAATGGGCG	1.06
ATTATTTCAC	1.02
TCTGGACGAT	1.03
AGTTCGCTCG	0.922
AGGCTAGGA	0.981
CCTTGCTAGT	1.13
